Whole data set: some 5,400 compounds, median “IFI” near 2, cut for the highest 2% near 22. The list shows a part of the results.
Assay: NOVARTIS: Inhibition Frequency Index (IFI) - the number of HTS assays where a compound showed > 50% inhibition/induction, expressed as a percentage of the number of assays in which the compound was tested.
Assay type: functional

| Compound | IFI |
| --- | --- |
| CC(C)CCNCC(O)Cn1c2ccccc2c2ccccc21 (configuration not stated) | 1.41% |
| O=C(c1ccc(F)cc1Cl)N1CCN(c2nc(-c3cccs3)ns2)CC1 | 0.935% |
| CN(C)c1ccc(C=CC=Cc2cccc[n+]2C)cc1 | 17.3% |
| COc1ccc(CN2CCC(Sc3ncccn3)CC2)cc1 | 1.39% |
| COc1ccc2nc(C)cc(Nc3ccc(Oc4ccc(Cl)cc4)c(Cl)c3)c2c1 | 12.5% |
| Cc1cc(NC2CCCCC2)nc(NCc2ccccc2)n1 | 0% |
| Cc1ccc(C(C(=O)NC(C)(C)C)N(C(=O)c2ccc(-c3ccccc3)[nH]2)c2ccc(C3CCCCC3)cc2)o1 (configuration not stated) | 3.16% |
| Cc1ccn2c(NC(C)(C)CC(C)(C)C)c(-c3ccccc3OC(=O)c3cccs3)nc2c1 | 3.74% |
| O=C(Nc1ccc(-c2nc3ccc(NC(=O)c4ccc(Br)cc4)cc3[nH]2)cc1)c1ccc(Br)cc1 | 4.92% |
| C[N+](C)(CC#Cc1ccccc1)CC#Cc1ccccc1 | 3.64% |
| CCOC(=O)C1=C(C)N=c2sc(=Cc3ccc(I)o3)c(=O)n2C1c1ccccc1Cl (configuration not stated) | 4.82% |
| CCCCNC(=O)NC(Cc1c[nH]c2ccccc12)C(=O)NC1CCCCC1 (configuration not stated) | 4.21% |
| Oc1cccc(Nc2nc(NCc3ccco3)c3ccccc3n2)c1 | 0% |
| O=C(Nc1cc(Cl)cc(Cl)c1)C1C2C=CC3(O2)C1C(=O)N(CCC1=CCCCC1)C3C(=O)NC1CCCCC1 (configuration not stated) | 2.13% |
| CCCCCNC(=O)C1CSC(c2ccoc2)N1C(=O)c1ccccc1Cl (configuration not stated) | 0.943% |
| COC(=O)COc1ccc(/C=C2\SC(=Nc3ccc(F)cc3)NC2=O)cc1 | 0% |
| CCCCOc1ccc(C(=O)Nc2cc(C)on2)cc1 | 0% |
| CCCCC(=O)N(C)CCCNc1ccnc2cc(Cl)ccc12 | 1.87% |
| O=S1(=O)CCC(O)c2ccsc21 (configuration not stated) | 0% |
| CN(C)CCCN(Cc1cc2cc3c(cc2[nH]c1=O)OCO3)C(=S)Nc1cccc(Cl)c1 | 4.96% |
| COc1cccc(-c2ccc(O)c(CNC(C)c3cccc4ccccc34)c2)n1 (configuration not stated) | 2.56% |

| Compound | IFI |
| --- | --- |
| COc1nc(C)nc(NC(=O)NC(=O)c2c(OC)ccc([N+](=O)[O-])c2OC)n1 | 2.61% |
| Cc1ccc(NC(=O)C(C)Sc2nnc(-c3ccc(O)cc3)o2)cc1 (configuration not stated) | 6.14% |
| O=C(O)c1cccc(N2N=C(c3ccccc3)CC2=O)c1 | 4.82% |
| COc1ccc(C2CC(=O)C3=C(C2)NC(C)=C(C(=O)OC2CCCC2)C3c2cccc(Cl)c2)cc1OC (configuration not stated) | 8.23% |
| C=CCc1c(C)nc2ccc(Br)cc2c1O | 0% |
| COc1ccc(C2CC(=O)C3=C(C2)NC(=O)CC3c2ccc([N+](=O)[O-])cc2)cc1OC (configuration not stated) | 0% |
| CO[C@H]1C[C@H](C)Cc2cc(O)cc(c2)NC(=O)C(C)=CCC[C@H](OC)[C@@H](OC(N)=O)C(C)=CC(C)[C@H]1O (some centres not stated) | 9.62% |
| COc1ccc(CNCc2cc(-c3ccnc4cc(Cl)ccc34)ccc2O)c(OC)c1 | 3.48% |
| Cc1cc(N2CCC(C)CC2)nc(-n2nc(C)cc2C)n1 | 1.61% |
| O=C(CSc1nc2ccccc2c(=O)n1CCCN1CCOCC1)Nc1cccc(S(=O)(=O)N2CCCCCC2)c1 | 3.03% |
| CCCN1CCC(N2C[C@@H](NCc3ccc(OCc4ccccc4)cc3)C[C@H]2C(=O)NCCc2ccc3c(c2)OCO3)CC1 | 9.71% |
| CCn1c(=NC(=O)c2cc(=O)c3ccccc3o2)sc2c(OC)ccc(OC)c21 | 1.89% |
| CCOc1cc(-c2nc3c(=O)n(C)c(=O)nc-3n(C)n2)ccc1OC(C)C | 30.8% |
| CCN(CC)C(=O)COc1ccccc1CNCc1ccccc1 | 0% |
| CCCCOC(=O)Cc1ccc(N)cc1 | 7.09% |
| CCC(c1nc2ccccc2c(=O)n1-c1cccc(C)c1)N(Cc1ccccc1)C(=O)Nc1c(C(C)C)cccc1C(C)C (configuration not stated) | 5.38% |
| COc1cc(C2C(C#N)=C(N)Oc3cc4c(cc32)OCO4)cc(Br)c1OC (configuration not stated) | 7.69% |
| O=C(Nc1ccc(-c2nc3ccccc3[nH]2)cc1)c1cccc(C(=O)Nc2ccc(-c3nc4ccccc4[nH]3)cc2)n1 | 11.1% |
| COc1ccc(NC(=O)c2cc3cc(C4(O)CCN(CC(C)(C)C)CC4)ccc3o2)cc1OC | 1.94% |
| CCCC(=O)N(C/C=C/c1ccccc1OC)CCN1CCN(C(=O)Nc2cccc(C)c2)CC1 | 2.8% |
| CCSc1ncnc2scc(-c3ccccc3)c12 | 1.19% |

| Compound | IFI |
| --- | --- |
| CCOC(=O)C1=C(c2ccccc2)N=c2sc(=Cc3ccccc3O)c(=O)n2C1c1c(OC)ccc2ccccc12 (configuration not stated) | 0% |
| CCN(CC)S(=O)(=O)c1ccc2[nH]cc(C(=O)NCCCN3CCN(c4ccc(OC)cc4)CC3)c(=O)c2c1 | 6% |
| Cc1nc(NN=Cc2ccccc2O)cc(N2CCCCC2)n1 | 0% |
| COc1cc(OC)c(NC(=O)C2c3ccccc3C(=O)N(C)C2c2cccs2)cc1Cl (configuration not stated) | 2.7% |
| Cc1ccc2nc(-c3ccc(NC(=O)c4ccc(S(=O)(=O)N5CC(C)CC(C)C5)cc4)cc3)sc2c1 (configuration not stated) | 2.3% |
| CCOC(=O)CCC(=O)Oc1ccccc1-c1nc2cc(C)ccn2c1NC(C)(C)CC(C)(C)C | 4.67% |
| O=C(NN=Cc1ccc(Br)cc1)c1ccco1 | 0% |
| Cc1nn(-c2cc(N3CCOCC3)ccc2[N+](=O)[O-])c(=O)c2ccccc12 | 1.18% |
| CCN1CCN(c2cc(C)c3cc(NC(=O)c4cc(=O)c5ccccc5o4)ccc3n2)CC1 | 9.2% |
| COC(=O)C1=C(C)N/C(=C\c2cc(C)n(-c3cc(Cl)ccc3Cl)c2C)C1=O | 0% |
| CC(C)CNc1nc(NCCCn2ccnc2)ncc1C(=O)NCc1ccccc1 | 1.94% |
| CN(CCCNc1ccnc2cc(Cl)ccc12)C(=O)c1cccc(C(F)(F)F)c1 | 3.74% |
| c1ccc(OCCOc2ccc(Nc3c4ccccc4nc4ccccc34)cc2)cc1 | 0% |
| COc1cc(NC(C)CCCN(Cc2ccc(Cl)cc2)C(=O)Nc2ccccc2F)c2ncccc2c1 (configuration not stated) | 3.67% |
| CCOC(=O)c1cnc2ccccc2c1Nc1ccc(C(C)=O)cc1 | 6.15% |
| CCN1CCN(c2c(C(=O)c3ccccc3)cnc3cc(OC)c(OC)cc23)CC1 | 2.22% |
| CCCn1c(=O)c(C(=O)NCC[N+](CC)(CC)CC)c(O)c2ccccc21 | 0% |
| O=C(Cc1ccc(Cl)cc1)NNS(=O)(=O)c1ccc([N+](=O)[O-])cc1 | 0% |
| COc1ccccc1-n1c(C(C)N(C)C(=O)Nc2ccccc2F)nc2ccccc2c1=O (configuration not stated) | 4.9% |
| CCOc1ccc2[nH]c(=O)c(CN(CCCN3CCOCC3)C(=S)NCCCN(CC)CC)cc2c1 | 4.42% |
